In all, about 310,000 compounds went through this assay and about 14,000 (4.5%) showed an effect of 50% or more. Effects have a minus sign here. This is one part of the list.
These compounds were tested against human ether-à-go-go-related gene (hERG) potassium channel (human, UniProt Q12809) (assay: primary screen, population patch clamp on CHO cells stably expressing hERG).
Sequence of human ether-à-go-go-related gene (hERG) potassium channel (Q12809 whole entry, looked up): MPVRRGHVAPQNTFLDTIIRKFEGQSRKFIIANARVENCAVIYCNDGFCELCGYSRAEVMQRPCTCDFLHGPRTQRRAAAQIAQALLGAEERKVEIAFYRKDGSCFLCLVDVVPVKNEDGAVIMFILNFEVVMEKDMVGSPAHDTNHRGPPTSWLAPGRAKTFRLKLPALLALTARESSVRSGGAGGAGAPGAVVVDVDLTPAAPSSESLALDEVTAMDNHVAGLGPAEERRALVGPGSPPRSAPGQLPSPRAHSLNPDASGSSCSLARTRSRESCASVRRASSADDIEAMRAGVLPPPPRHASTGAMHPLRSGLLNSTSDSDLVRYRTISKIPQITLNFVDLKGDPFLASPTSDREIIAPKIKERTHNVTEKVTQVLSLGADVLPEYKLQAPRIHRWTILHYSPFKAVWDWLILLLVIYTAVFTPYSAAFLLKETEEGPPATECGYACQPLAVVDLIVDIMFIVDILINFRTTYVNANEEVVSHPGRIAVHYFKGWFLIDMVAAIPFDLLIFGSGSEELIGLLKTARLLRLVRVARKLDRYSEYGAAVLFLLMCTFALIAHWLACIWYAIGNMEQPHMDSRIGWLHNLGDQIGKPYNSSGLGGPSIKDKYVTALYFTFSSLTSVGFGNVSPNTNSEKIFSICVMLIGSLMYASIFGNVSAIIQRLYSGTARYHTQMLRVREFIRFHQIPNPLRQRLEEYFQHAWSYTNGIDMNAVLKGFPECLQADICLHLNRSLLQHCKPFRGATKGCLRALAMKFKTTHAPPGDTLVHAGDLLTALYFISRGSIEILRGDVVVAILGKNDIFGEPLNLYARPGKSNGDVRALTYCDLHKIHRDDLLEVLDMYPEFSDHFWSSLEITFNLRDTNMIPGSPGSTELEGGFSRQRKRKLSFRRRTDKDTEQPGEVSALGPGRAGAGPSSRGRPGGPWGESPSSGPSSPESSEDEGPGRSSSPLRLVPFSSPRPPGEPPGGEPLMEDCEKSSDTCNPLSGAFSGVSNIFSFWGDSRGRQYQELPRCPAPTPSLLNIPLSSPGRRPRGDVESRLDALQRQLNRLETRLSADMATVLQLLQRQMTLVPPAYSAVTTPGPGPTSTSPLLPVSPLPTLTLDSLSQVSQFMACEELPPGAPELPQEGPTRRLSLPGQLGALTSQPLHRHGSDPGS
With `COc1ccccc1Nc1nc(N)nc(CCl)n1` the “hERG current change (%, negative = inhibition) at 10uM” value was 3.4%.
`COC(=O)C1CN(C(=O)COc2ccc(Cl)c(C)c2)c2ccccc2O1` (stereo not drawn) was tested, and the “hERG current change (%, negative = inhibition) at 10uM” value was -1.55%.
`COc1ccccc1-n1cnc2cc(C(=O)NC3CCCC3)ccc21` was tested, and the “hERG current change (%, negative = inhibition) at 10uM” value was -65.5%.
For `O=C1c2ccccc2C(=O)c2c1ncn2-c1ccccc1`, the “hERG current change (%, negative = inhibition) at 10uM” value was -26.2%.
With `Nc1c2c(nc3ccccc13)CCCC2=O.O=C(O)CCC(=O)O` the “hERG current change (%, negative = inhibition) at 10uM” value was -26.4%.
For `O=C(COC(=O)c1cc(S(=O)(=O)N2CCCCC2)ccc1N1CCOCC1)c1ccccc1`, the “hERG current change (%, negative = inhibition) at 10uM” value was -8.36%.
`O=C(c1ccc(S(=O)(=O)N2CCCC2)cc1)N(c1ccccc1)C1C=CS(=O)(=O)C1` (stereo not drawn) was tested, and the “hERG current change (%, negative = inhibition) at 10uM” value was -23%.
`CCCN(Cc1cc2cccc(C)c2[nH]c1=O)C(=O)c1cccc(OC)c1` was tested, and the “hERG current change (%, negative = inhibition) at 10uM” value was -23%.
For `O=C(C(=O)N1CCN(c2ccc(F)cc2)CC1)c1cn(CC(=O)N2CCOCC2)c2ccccc12`, the “hERG current change (%, negative = inhibition) at 10uM” value was -0.953%.
In the case of `COc1ccc(NC(=O)c2cccnc2N2CCCC2)cc1`, the “hERG current change (%, negative = inhibition) at 10uM” value is reported as 0.363%.
For `Cc1cc(C)nc(N2CCCC(C(=O)NCc3ccccc3F)C2)n1` (stereo not drawn), the “hERG current change (%, negative = inhibition) at 10uM” value was 7.81%.
For `COC(=O)Nc1ccc(S(=O)(=O)Nc2cccc3ccccc23)cc1`, the “hERG current change (%, negative = inhibition) at 10uM” value was 7.59%.
For `CC(NC(=O)COc1ccc(/C=N/NC(=O)CO)cc1)c1ccccc1` (stereo not drawn), the “hERG current change (%, negative = inhibition) at 10uM” value was -0.156%.
With `COc1ccc(C2C3=C(CC(C)(C)CC3=O)Nc3c2c(=O)[nH]c(=O)n3Cc2ccccc2)cc1OC` (stereo not drawn) the “hERG current change (%, negative = inhibition) at 10uM” value was -3.11%.
For `O=C1c2ccccc2C(=O)N1/N=C/c1ccc(O)c(O)c1`, the “hERG current change (%, negative = inhibition) at 10uM” value was 9.42%.
For `CCOC(=O)c1ccc(N2CN=C3SCC(=O)N3C2)cc1`, the “hERG current change (%, negative = inhibition) at 10uM” value was -9.19%.
`Cc1ccc(NC(=O)OCc2cc(-c3ccccc3)on2)cc1` was tested, and the “hERG current change (%, negative = inhibition) at 10uM” value was 5.38%.
In the case of `Cc1cc2cc(CCNC(=O)c3cccs3)c(=O)[nH]c2cc1C`, the “hERG current change (%, negative = inhibition) at 10uM” value is reported as -8.88%.
`CC12CCC(C(=O)N3CCc4ccccc43)(CC1=O)C2(C)C` (stereo not drawn) was tested, and the “hERG current change (%, negative = inhibition) at 10uM” value was 0.635%.
`COc1ccc(NC(=O)Cc2c(F)cccc2Cl)cc1` was tested, and the “hERG current change (%, negative = inhibition) at 10uM” value was 28.2%.
For `CCC(=NCc1ccc(Cl)c(Cl)c1)c1nc(-c2ccco2)oc1O`, the “hERG current change (%, negative = inhibition) at 10uM” value was 25.7%.
For `Cc1cccc(-n2c(C)nc3cc(C(=O)NCc4ccc5c(c4)OCO5)ccc32)c1`, the “hERG current change (%, negative = inhibition) at 10uM” value was -12.3%.
With `O=C(CC(=O)c1ccccc1[N+](=O)[O-])c1ccccc1` the “hERG current change (%, negative = inhibition) at 10uM” value was 11.3%.
In the case of `Cc1[nH]n(-c2ccccc2)c(=O)c1/C=N\NC(=O)C1COc2ccccc2O1` (stereo not drawn), the “hERG current change (%, negative = inhibition) at 10uM” value is reported as 2.21%.

— PMC4336329 (PLoS ONE, 2015)
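Also: peak tail current of the secondary pulse compared with the same well before compound.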
